Among all 310,000 compounds or so, about 14,000 (4.5%) showed an effect of 50% or more. Effects have a minus sign here. The list shows a part of the results.
target: human ether-à-go-go-related gene (hERG) potassium channel (human, UniProt Q12809); experiment: primary screen, population patch clamp on CHO cells stably expressing hERG
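Note: peak tail current of the secondary pulse compared with the same well before compound.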

Chain of human ether-à-go-go-related gene (hERG) potassium channel (Q12809 whole entry, looked up): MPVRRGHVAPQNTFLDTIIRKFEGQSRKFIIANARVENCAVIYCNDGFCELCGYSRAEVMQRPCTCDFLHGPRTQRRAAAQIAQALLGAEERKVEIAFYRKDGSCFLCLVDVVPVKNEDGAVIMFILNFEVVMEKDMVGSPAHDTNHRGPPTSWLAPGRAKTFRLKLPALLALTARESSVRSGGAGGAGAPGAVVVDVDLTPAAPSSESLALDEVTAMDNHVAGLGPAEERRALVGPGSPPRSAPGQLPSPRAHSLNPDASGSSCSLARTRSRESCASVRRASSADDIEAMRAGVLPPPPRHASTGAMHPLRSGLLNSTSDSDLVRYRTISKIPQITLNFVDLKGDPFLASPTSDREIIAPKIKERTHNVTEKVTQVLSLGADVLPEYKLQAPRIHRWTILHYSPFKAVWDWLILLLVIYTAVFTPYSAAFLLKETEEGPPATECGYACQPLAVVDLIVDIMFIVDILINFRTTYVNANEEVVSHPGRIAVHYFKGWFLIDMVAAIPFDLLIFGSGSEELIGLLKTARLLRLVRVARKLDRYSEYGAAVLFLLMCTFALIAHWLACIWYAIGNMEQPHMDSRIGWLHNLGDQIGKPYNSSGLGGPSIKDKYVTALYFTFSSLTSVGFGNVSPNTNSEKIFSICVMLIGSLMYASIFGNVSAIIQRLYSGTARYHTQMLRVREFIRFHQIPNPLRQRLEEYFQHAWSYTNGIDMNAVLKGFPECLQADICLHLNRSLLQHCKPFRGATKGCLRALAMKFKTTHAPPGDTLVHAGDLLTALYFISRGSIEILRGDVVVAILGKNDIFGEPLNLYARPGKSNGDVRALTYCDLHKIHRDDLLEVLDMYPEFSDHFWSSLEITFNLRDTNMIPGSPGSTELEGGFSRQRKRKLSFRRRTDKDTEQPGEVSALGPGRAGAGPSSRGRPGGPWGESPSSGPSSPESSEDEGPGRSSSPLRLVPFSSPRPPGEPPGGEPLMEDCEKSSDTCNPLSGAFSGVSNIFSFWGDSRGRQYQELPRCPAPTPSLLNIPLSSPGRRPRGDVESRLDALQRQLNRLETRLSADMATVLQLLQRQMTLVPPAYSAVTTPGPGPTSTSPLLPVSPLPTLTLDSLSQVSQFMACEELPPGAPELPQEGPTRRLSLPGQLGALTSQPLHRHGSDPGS

Compound | hERG current change (%, negative = inhibition) at 10uM [%]
COC(=O)c1c(C)noc1-c1ccc(Cl)cc1 | -12.2
CCN(CC)C(=O)CSc1nnc(-c2cccc(OC)c2)o1 | -9.81
Cc1ccc(-c2nnc(N3CCN(C(=O)c4ccco4)CC3)c3ccccc23)cc1 | -75.2
CCOC(=O)CN1C(=O)C2Cc3ccccc3CN2C1=S (stereo not drawn) | -16.3
COc1ccc(OCC(=O)OCC(=O)c2ccc(OC)c(F)c2)cc1 | 12.8
CCc1cc(=O)oc2cc(OCc3ccc(C(=O)O)o3)ccc12 | 22.8
CN(C)CCn1c2c(c(SCC(=O)Nc3ccc4c(c3)OCCO4)nc1=O)CCC2 | -16.1
Cc1cc(N(C)Cc2ccccc2)nc2cc(O)ccc12 | -56.4
O=C(NC(=S)NC1CCSC1=O)c1ccc([N+](=O)[O-])cc1 (stereo not drawn) | -0.601
O=C(Oc1ccccc1)c1cccc(N2C(=O)CCC2=O)c1 | -1.41
COc1ccc(-c2oc3ccc(N4CCOCC4)cc3c2/C=C/c2ccc(OC)c(OC)c2)cc1 | 16.8
Cn1c(=O)[nH]c(=O)c2c1nc(CN1CCOCC1)n2CCc1ccccc1 | -1.71
CC1CCN(c2ccc3c(c2)S(=O)(=O)c2ccccc2C3=O)CC1 | 7.82
C=CCn1c(SCCCC)nc([O-])cc1=O.[NH4+] | 5.65
Cc1ccc(/C=N/n2c(-c3ccco3)n[nH]c2=S)cc1 | 9.2
N#Cc1ccccc1S(=O)(=O)N1CCN(C(=O)CN2C(=O)NC3(CCCC3)C2=O)CC1 | 17.4
COc1ccccc1N1CCN(C(=O)c2ccc(NS(=O)(=O)c3ccc(C)cc3)cc2)CC1 | -4.3
Cc1oc2c(c1C(=O)c1ccccc1)C(=O)C(=O)c1ccccc1-2 | -1.85
O/N=C1\CCCc2c1nc(-c1ccccc1F)n2O | 26.1
CCCn1cnc2cc(NC(=O)c3cccs3)ccc21 | 10.3
CC(C)(C)c1cc(/C=C2\NC(=O)NC2=O)cc(C(C)(C)C)c1O | -12.3
O=C1CC(N2CCN(c3ccc(Cl)cc3)CC2)C(=O)N1c1ccccc1 (stereo not drawn) | 1.34
CN(C(=O)COC(=O)c1cccc(Cl)c1)C1CCS(=O)(=O)C1 (stereo not drawn) | 1.08

Compound | hERG current change (%, negative = inhibition) at 10uM [%]
O=C(Nc1ccccc1OC(F)(F)F)c1ccc([N+](=O)[O-])cc1 | -2.38
Cc1ccc2c(c1)C1CN(C)CCC1N2C(=O)/C(C#N)=C/c1ccc2c(c1)OCO2 (stereo not drawn) | -21.2
O=C(c1ccccc1Br)N1CCn2c1nc1ccccc12 | -14.5
COc1ccc(N2CCCn3c2nc2c3c(=O)n(Cc3ccc(C)cc3)c(=O)n2C)c(OC)c1 | -10.4
BrCCc1ccccc1 | 15.4
c1ccc(Nc2nc(-c3cccnc3)cs2)nc1 | -1.81
COC(=O)c1cc(=O)n(-c2ccccc2)c(=Nc2ccccc2)s1 | 1.66
Cc1cc(C(=O)N2CCc3ccccc3C2)n[nH]1 | 5.11
CCS(=O)(=O)N1CCC(C(=O)Oc2ccc(C(=O)OC)cc2)CC1 | 3.85
Cc1ccc(NC(=O)COC(=O)COc2ccc(Cl)cc2C)c([N+](=O)[O-])c1 | -2.13
Cc1cc(C)c(C)c(OCCOCCN2CCOCC2)c1 | -6.76
CCC(=O)Nc1cc(C(=O)OCc2ccc(C(=O)Oc3ccccc3)cc2)ccc1C | 6.38
CC(=O)c1cc(C#N)c(SCC(=O)OC(C)C)nc1C | -5.79
CCOc1cc(CNCc2ccncc2)cc(Br)c1OCc1ccccc1F.Cl | -24.1
Cc1ccc(C(=O)N2CCN(c3ccccc3)CC2)cc1S(=O)(=O)N1CCCC1 | -31.2
O=C(/C(C=Nc1ccc(Br)cc1)=C(/O)c1ccco1)C(F)(F)F | -52.6
COC(=O)c1ccc(C(=O)Nc2ccc3nc(-c4ccncc4)[nH]c3c2)cc1 | 18
COc1ccccc1CC(=O)N1CCN(c2cccc(C(F)(F)F)c2)CC1 | -9.71
CCn1c(=O)cc(SCC(=O)Nc2ccc3c(c2)OCCO3)c2ccccc21 | 14.8
CCN1CCN(C(=O)CCc2nnc3ccc(N4CCN(c5cccc(OC)c5)CC4)nn23)CC1 | -5.55
O=Cc1ccc(OCCN2CCCC2=O)cc1 | -11.8
Cc1ccc(-c2csc(NC(=S)NC(=O)c3ccco3)n2)cc1 | 3.36
O=C(COC(=O)Cc1ccc(Cl)cc1)NC1CCCC1 | 16.1

Compound | hERG current change (%, negative = inhibition) at 10uM [%]
COc1ccc(CCNC(=O)CSc2nc3sc(C(=O)O)c(C)c3c(=O)[nH]2)cc1OC | -1.12
O=P(COCCOCP(=O)(c1ccccc1)c1ccccc1)(c1ccccc1)c1ccccc1 | -8.03
CN(Cc1c(F)cccc1Cl)C(=O)c1cccc(S(=O)(=O)NCc2ccccc2)c1 | -28
CCOc1ccccc1N(C)C(=O)CCS(=O)(=O)c1ccc2c(c1)NC(=O)CO2 | 5.58
N#CC1=C(S)N(c2ccccc2)C(c2cccs2)NC1=O (stereo not drawn) | 1.7
Cc1ccccc1C(=O)NNC(=O)/C=C/c1ccccc1 | 16.4
CC1CN(S(=O)(=O)c2ccc(C(=O)N3CCc4ccccc43)cc2)CC(C)O1 (stereo not drawn) | 15.9
CC(NC(=O)C(=O)NCCC1=CCCCC1)c1ccccc1 (stereo not drawn) | 4.74
COC(=O)c1cccc2c1NC(=O)C2=O | 8.85
CCN(CC)C(=O)Cn1cc(C(=O)C(=O)NCc2cccnc2)c2ccccc21 | 15
O=c1nc2n(Cc3ccccc3)c3ccccc3cc-2c(=O)[nH]1 | 2.67
COc1cc(NC(=O)CSc2nc3[nH]ncc3c(=O)n2-c2ccc(Cl)cc2)cc(OC)c1 | 12.3
Cc1ccc(-c2ccc(CO)o2)cc1N | 9.48
CC1CCCN(C(=O)c2ccc3c(=O)n(C4CCCC4)c(=S)[nH]c3c2)C1 (stereo not drawn) | 7.81
Cc1ccccc1-c1cc2nc(C)c(C)c(=O)n2[nH]1 | 10.2
Cc1oc(-c2ccccc2Cl)nc1CS(=O)CC(=O)NCc1cccs1 (stereo not drawn) | -7.98
Cn1cnc2c1c(=O)[nH]c(=O)n2C | 2.3
ClC1(Cl)CC1CSc1nc2ccccc2[nH]1 (stereo not drawn) | -16.7
CCCN(CC(=O)Nc1ccc(C(N)=O)cc1)CC(=O)Nc1cc(Cl)ccc1Cl | 12.5
COc1ccccc1NC(=O)c1ccc(-c2ccccc2F)o1 | 12.7
CC(=O)N(Cc1ccco1)C1(C(=O)NC2CCCCC2)CCCCC1 | -0.309
COc1ccc(OCCSc2nc(C)c(Cc3ccccc3)c(=O)[nH]2)cc1 | -5
CCOC(=O)Nc1sc2c(c1C(=O)OCC)CCC2 | 11.6

Compound | hERG current change (%, negative = inhibition) at 10uM [%]
C/C(=N\NC(=O)c1ccc(CN2CCc3ccccc3C2)cc1)c1ccccc1O | -5.01
Cc1ccc(NC(=O)C2CCCN(C3=NS(=O)(=O)c4ccccc43)C2)c(O)c1 (stereo not drawn) | -33.6
CCc1ncc(C(O)c2cccc(OC)c2OC)n1C (stereo not drawn) | 7.01
CCn1cc(C(=O)N2CC(C)CC(C)C2)c(=O)c2cc(S(=O)(=O)N(C)C)ccc21 (stereo not drawn) | -8.98
COc1ccc(OC)c(-c2csc(NC(=O)Cc3ccc(F)cc3)n2)c1 | 11.5
COc1cccc(NC(=O)c2cc(C(=O)Nc3cccc(OC)c3)n(C)n2)c1 | 10.7
COc1ccc(Br)cc1CN(C)C(=O)c1cc(Cl)c2c(c1)OCCO2 | -0.338
CCC(=O)Nc1ccnc(-c2cccnc2)n1 | -11.5
Cc1nc2ncnn2c(C)c1CCC(=O)NC(C)c1ccc2c(c1)OCCO2 (stereo not drawn) | -11.8
COc1ccccc1OCC(=O)Nc1cccc(-c2nnc(-c3ccco3)o2)c1 | -3.01
O=c1cc(-c2ccc([N+](=O)[O-])cc2)nc2cc(-c3ccc(Cl)cc3)[nH]n12 | 7.56
CN(Cc1ccccc1)C(=O)C1CCCN(Cc2cccc(Cl)c2)C1.O=C(O)C(=O)O (stereo not drawn) | -23.5
COc1cc(NC(=O)C/C(C)=N/NC(=O)C(=O)NC2CCCCC2)c(OC)cc1Cl | -91.2
CCc1c(C(=O)Nc2ccncc2)csc1C | 4.67
CC(=O)Nc1nc(C)c(Oc2ccc(Cl)cc2Cl)c(=O)[nH]1 | 10.5
COc1cc(CNCCN2CCOCC2)ccc1OCc1ccccc1Cl.Cl | -45.7
Cc1onc(-c2c(Cl)cccc2Cl)c1C(=O)c1c[nH]c(C(=O)NC2CC2)c1 | 13.7
CC(C)c1ccc(NC2CCCN(C(=O)CCN3CCOCC3)C2)cc1 (stereo not drawn) | 0.518
C=CCCO[C@@H]1O[C@@H](C)[C@H](O)C[C@H]1O | 3.8
CCOc1ccccc1C(=O)Nc1ccccc1O | 5.59
CCN(CC)c1ccc(/C=C2/C(=O)NC(=O)N(CC3CCCO3)C2=O)cc1 (stereo not drawn) | -8.27

From article PMC4336329 (PLoS ONE, 2015)
